For three molecules, binding results are on record in paper PMC10991417.

By UniProt entry, the sequences of proteins in these tests, tags left out.
UniProt Q7JVP2: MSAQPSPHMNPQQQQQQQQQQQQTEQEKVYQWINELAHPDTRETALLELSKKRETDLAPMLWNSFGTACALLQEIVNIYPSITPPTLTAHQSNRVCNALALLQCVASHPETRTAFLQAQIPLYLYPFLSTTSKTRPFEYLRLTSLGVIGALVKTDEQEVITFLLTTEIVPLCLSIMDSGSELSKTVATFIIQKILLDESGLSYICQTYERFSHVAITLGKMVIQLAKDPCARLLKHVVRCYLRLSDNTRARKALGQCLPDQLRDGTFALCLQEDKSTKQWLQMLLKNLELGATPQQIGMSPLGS
UniProt A8DY81: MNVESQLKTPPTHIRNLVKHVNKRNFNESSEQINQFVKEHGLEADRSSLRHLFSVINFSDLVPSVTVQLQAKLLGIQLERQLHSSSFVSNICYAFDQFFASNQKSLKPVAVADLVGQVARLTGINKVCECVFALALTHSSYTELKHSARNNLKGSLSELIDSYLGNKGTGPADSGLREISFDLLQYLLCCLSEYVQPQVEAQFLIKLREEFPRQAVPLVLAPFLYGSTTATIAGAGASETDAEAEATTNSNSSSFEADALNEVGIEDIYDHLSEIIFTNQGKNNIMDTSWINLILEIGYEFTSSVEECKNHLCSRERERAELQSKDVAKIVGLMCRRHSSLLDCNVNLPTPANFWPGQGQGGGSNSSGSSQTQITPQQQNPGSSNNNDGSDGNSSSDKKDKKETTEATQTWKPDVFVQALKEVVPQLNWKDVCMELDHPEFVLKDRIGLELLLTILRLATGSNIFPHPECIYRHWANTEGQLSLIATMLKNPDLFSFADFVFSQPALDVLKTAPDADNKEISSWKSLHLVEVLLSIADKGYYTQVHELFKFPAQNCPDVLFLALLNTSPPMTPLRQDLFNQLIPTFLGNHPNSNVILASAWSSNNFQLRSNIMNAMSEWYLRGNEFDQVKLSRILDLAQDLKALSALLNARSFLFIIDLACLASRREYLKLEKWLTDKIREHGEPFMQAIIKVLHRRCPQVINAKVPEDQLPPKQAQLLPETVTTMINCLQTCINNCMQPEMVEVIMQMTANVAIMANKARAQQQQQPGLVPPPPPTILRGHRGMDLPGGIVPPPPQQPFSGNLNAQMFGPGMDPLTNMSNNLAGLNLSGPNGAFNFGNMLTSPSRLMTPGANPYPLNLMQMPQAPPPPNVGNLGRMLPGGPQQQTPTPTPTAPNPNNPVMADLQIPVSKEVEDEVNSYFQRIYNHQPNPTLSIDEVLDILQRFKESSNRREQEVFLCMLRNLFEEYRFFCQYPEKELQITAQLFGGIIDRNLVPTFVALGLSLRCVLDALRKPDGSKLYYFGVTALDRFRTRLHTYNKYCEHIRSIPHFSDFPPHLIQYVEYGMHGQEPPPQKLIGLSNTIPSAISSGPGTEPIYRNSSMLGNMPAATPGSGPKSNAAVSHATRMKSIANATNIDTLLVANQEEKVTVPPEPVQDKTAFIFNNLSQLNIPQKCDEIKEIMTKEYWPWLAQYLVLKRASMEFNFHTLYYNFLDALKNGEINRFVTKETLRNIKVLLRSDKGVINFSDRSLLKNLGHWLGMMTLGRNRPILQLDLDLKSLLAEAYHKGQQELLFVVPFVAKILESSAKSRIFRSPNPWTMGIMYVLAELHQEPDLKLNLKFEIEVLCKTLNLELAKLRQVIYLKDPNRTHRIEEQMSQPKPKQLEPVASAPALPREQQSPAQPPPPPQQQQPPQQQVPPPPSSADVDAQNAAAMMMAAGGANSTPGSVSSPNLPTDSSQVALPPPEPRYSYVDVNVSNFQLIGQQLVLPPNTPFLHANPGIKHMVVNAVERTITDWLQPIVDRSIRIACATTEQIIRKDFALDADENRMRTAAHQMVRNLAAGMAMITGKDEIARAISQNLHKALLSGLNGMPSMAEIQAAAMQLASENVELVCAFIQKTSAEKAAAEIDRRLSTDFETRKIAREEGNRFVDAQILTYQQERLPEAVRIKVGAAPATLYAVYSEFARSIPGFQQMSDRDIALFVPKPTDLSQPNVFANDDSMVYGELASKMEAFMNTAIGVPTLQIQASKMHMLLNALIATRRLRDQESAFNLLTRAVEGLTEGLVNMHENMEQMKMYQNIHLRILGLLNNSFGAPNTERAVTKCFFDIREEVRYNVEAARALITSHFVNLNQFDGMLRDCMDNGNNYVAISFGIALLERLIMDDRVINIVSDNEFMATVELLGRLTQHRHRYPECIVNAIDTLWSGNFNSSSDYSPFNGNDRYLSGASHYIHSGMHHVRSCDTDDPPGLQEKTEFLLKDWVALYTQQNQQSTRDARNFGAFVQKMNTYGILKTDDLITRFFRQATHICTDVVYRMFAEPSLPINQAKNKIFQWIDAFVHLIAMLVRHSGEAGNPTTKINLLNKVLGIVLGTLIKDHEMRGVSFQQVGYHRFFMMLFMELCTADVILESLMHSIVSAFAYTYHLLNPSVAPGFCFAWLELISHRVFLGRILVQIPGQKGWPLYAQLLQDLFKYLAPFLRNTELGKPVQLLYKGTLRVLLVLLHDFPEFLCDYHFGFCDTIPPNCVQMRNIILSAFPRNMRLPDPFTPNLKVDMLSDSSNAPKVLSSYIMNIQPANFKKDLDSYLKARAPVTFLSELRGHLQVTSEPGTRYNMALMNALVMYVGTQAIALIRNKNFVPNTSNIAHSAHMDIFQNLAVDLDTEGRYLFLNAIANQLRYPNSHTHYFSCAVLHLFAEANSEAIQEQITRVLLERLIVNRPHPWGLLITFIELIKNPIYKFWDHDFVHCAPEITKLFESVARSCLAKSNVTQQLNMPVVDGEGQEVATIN
UniProt Q7K126: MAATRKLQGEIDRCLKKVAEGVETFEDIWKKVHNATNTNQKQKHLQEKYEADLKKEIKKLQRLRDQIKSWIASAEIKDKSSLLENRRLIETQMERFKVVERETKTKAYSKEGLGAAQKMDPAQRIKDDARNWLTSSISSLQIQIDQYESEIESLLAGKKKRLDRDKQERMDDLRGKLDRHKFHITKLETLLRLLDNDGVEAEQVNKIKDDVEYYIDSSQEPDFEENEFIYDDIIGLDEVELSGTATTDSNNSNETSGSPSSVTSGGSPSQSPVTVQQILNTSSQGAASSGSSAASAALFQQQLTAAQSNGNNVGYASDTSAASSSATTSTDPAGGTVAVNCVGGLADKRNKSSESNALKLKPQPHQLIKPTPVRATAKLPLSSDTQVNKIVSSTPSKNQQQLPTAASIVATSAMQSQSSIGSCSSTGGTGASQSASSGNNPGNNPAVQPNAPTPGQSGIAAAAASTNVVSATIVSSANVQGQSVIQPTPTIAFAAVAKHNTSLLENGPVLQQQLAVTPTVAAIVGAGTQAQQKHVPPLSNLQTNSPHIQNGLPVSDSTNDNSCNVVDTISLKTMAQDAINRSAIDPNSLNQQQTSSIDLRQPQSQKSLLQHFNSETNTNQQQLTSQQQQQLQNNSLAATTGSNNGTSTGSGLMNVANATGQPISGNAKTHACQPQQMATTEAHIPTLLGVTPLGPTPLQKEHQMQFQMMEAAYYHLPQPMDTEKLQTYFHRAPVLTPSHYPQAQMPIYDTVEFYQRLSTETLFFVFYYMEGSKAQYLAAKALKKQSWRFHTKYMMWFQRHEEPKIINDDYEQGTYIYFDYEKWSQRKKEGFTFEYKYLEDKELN
UniProt O02374: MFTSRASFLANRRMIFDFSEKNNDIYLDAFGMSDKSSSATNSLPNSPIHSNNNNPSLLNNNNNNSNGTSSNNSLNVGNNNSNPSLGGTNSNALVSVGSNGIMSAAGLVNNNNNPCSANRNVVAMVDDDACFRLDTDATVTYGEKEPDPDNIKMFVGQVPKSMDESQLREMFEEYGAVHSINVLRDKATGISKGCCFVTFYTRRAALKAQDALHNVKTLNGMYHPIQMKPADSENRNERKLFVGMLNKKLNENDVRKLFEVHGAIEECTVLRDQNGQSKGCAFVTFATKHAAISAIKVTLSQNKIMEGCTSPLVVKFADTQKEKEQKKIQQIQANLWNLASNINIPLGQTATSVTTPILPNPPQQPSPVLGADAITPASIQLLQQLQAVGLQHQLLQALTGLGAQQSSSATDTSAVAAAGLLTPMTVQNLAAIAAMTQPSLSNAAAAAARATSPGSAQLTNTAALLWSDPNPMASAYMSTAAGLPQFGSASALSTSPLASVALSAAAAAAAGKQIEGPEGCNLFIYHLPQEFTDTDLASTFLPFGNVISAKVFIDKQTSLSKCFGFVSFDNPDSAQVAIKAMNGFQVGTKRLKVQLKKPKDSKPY

Where two headings read alike, the source gives them in different places. Results are given in words; binding and its absence hold for the method and conditions named. Some entries that bind do so weakly or less than the wild type.

For test [1], the target named is T1, Nanos (Drosophila) (Drosophila) (UniProt P25724).
T1 sequence: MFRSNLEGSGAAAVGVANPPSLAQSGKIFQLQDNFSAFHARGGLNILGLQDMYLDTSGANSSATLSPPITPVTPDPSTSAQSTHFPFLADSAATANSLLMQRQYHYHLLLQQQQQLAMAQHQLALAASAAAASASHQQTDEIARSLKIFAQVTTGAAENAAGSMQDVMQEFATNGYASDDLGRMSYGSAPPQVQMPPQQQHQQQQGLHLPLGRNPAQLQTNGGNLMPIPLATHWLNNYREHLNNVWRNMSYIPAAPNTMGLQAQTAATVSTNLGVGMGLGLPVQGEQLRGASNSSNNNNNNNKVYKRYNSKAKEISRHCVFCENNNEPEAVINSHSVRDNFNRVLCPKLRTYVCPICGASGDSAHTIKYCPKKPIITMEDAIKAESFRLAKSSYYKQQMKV
Put plainly: ReLo relocalization assay (live-cell confocal fluorescence microscopy); two tested proteins with Cup coexpressed as a third protein in S2R+ cells.

Test [2] concerns the target CAF40 (Drosophila CCR4-NOT complex subunit) (Drosophila) (UniProt Q7JVP2). As to the kind of experiment: ReLo relocalization assay (live-cell confocal fluorescence microscopy); pairwise; membrane anchor (PH or OST4) and which partner was anchored are not given; S2R+ cells cotransfected with two plasmids, imaged after 48 h at 25 °C.
Test [3] has as its target NOT1 (Drosophila CCR4-NOT complex subunit) (Drosophila) (UniProt A8DY81). Described as above.
Test [4] has as its target T2, NOT2 (Drosophila CCR4-NOT complex subunit) (Drosophila) (UniProt Q94547).
T2 sequence: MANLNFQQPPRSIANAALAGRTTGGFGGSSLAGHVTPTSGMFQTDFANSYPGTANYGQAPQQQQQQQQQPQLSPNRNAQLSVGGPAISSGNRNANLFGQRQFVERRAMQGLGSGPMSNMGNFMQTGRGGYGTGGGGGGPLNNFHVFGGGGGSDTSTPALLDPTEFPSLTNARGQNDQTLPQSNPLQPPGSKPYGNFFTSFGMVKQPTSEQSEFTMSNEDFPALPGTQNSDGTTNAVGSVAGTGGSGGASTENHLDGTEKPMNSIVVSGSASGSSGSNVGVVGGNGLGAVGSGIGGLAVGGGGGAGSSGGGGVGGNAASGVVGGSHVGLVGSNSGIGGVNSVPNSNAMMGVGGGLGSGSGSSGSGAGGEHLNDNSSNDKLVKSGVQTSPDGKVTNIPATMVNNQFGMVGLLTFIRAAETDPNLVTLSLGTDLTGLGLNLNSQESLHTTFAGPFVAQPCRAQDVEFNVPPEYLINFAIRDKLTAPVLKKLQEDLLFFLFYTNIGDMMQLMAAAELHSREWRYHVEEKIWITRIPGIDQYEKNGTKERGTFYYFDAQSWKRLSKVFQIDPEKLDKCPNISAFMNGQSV
Described as above.

Test [5] has as its target NOT3 (Drosophila CCR4-NOT complex subunit) (Drosophila) (UniProt Q7K126). Described as above.
The target of test [6] is T1, Nanos (Drosophila) (Drosophila). The test is described as above.
For test [7], the target named is Bruno (UniProt O02374). The test is described as above.
Test [8] concerns the target CAF40 (Drosophila CCR4-NOT complex subunit) (Drosophila) (UniProt Q7JVP2). The description is as above. This is another data set of the same source.
Test [9] has as its target T3, DEAD-box RNA helicase Me31B (UniProt P23128).
T3 sequence: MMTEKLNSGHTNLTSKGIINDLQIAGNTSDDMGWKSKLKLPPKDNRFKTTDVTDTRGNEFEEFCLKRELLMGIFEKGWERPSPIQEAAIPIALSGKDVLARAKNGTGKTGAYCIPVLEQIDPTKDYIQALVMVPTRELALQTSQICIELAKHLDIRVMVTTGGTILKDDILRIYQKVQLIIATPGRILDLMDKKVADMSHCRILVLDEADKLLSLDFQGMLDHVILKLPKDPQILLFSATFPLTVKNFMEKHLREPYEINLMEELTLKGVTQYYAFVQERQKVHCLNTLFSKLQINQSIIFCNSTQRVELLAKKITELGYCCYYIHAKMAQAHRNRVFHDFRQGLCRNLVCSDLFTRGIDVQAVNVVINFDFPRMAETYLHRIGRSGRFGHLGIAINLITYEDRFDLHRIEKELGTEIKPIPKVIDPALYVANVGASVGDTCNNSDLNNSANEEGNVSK
The description is as above.

Test [10] has as its target NOT1 (Drosophila CCR4-NOT complex subunit) (Drosophila) (UniProt A8DY81). The description is as above. The source holds these as a separate data set.
Test [11] concerns the target T2, NOT2 (Drosophila CCR4-NOT complex subunit) (Drosophila). Described as above. This is another data set of the same source.
Test [12] addresses NOT3 (Drosophila CCR4-NOT complex subunit) (Drosophila) (UniProt Q7K126). The description is as above. This is another data set of the same source.
Test [13] has as its target T1, Nanos (Drosophila) (Drosophila). Described as above. The source holds these as a separate data set.
Test [14] addresses T4, eukaryotic translation initiation factor 4E (eIF4E) (Drosophila) (UniProt P48598).
T4 sequence: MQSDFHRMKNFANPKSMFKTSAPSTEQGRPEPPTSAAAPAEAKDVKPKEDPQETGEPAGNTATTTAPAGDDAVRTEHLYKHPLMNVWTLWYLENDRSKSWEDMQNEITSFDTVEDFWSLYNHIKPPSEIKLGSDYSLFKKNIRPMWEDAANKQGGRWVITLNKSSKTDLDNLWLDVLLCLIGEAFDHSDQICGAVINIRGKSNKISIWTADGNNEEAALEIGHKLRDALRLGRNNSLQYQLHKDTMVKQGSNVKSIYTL
The test is described as above.

Test [15] addresses CAF40 (Drosophila CCR4-NOT complex subunit) (Drosophila) (UniProt Q7JVP2). As to the kind of experiment: ReLo relocalization assay (live-cell confocal fluorescence microscopy); pairwise; one partner anchored to the plasma membrane by the PH domain of rat PLCδ1 and fused to mCherry, the other fused to EGFP/mEGFP; S2R+ cells cotransfected with two plasmids, imaged after 48 h at 25 °C.

The target in test [16] is NOT1 (Drosophila CCR4-NOT complex subunit) (Drosophila) (UniProt A8DY81). Described as above.
Test [17] concerns the target NOT3 (Drosophila CCR4-NOT complex subunit) (Drosophila) (UniProt Q7K126). The test is described as above.

Regarding Bruno (from UniProt O02374 1-604), the binding result in test [1] was “no binding (condition: with Cup coexpressed)”; in [2], “no binding”; in test [3] it was “no binding”; in test [4] it was “no binding”; in [5], “no binding”; in test [6] it was “binds”.

B1: Cup (Drosophila) (protein, UniProt Q9VMA3 1-1117)
chain: MQMAEAEQENGAGALKIATNAGATDRPAHQQLPLPVEDQQDEVLTPAEKGKFEYPPPPPPPTPVQAPLATKATALNASQEHDDDEANSEKWEDPCAPPPPPPLPTSAFLATGLGYLKLPAFKLKDALEKAITKLEANKRTLKASPESSRSIKNKNVVALEMLPRRSNPETIGDGSMLASTSTAVMLQTKKPAVIVEMERRCKIINLLAKQNQILESISGEAIPMHGPSKHLHEDEGLTLQVLSARASTPYTQPSSMLSCTAVSCDLEHDSPRKQVASKEAVPEQQSSQVQQKRPPSTGIHKPGSLRAPKAVRPTTAPVVSSKPVKSYTRSRLMDIRNGMFNALMHRSKESFVMPRIATCDDIELEGRLRRMNIWRTSDGTRFRTRSTTANLNMNNNNNNECMPAFFKNKNKPNLISDESIIQSQPPQPQTEFQDPAIVNQRRIGSGRLNHSKWGYNDEDYHSYHNGKSQHMEEVNSKNSKNMTVLQFFDNGEISSQPQRRPNTPVMGMSINRSENDTLHSNESSEDLSRANENYVKRVMSGFLVVSKPKSRDVEDRHHRRYRNQNEEPEWFSCGPTSRLDTIELCGFDEDEEKMLKEGNKNHGLGETERETSKQKMDHKYKWTHAEPMGRSKYMPKHDTNNNHNVENMNNVMATEHQQQKEEKRPGSGRSFQFDKFNQSQQNYESSSYVNHQQPPQTQPQQMQQQSNTNTNNSKFMSFFANEGNSSSSSLNEFFKQAINQGHGNNPEQPKSLGHIGQMPSVDQLEAKWRRNSLNNVGETANKQTDNFQKLIGSLSSAKPQSQAVGYDAISNFIMQQQQYQQQQQKQHLIIQQQQQHTAFLASLQLKAILGRADTQLLLLRLTKGEISKHGLLVQLANPRLTDMDREAITAVLQFTNTQQQQQQHKQQLDMLSSTVIASQLQNLHNLAIVQQTLAARQQPQHNPQTQAPHQLSQEDLQAHANVIMRNAVMKRKIEEQTSKLINGGAKHQAQQQYLNRGQQRQARPDANSNALLHALISGGGNNHASGYPMNGQPQKHHSNLRFGDNQNFQSFESNQPHFATQYKQQYQQSQQQHPHQQPQQLNSLHQNNAGAVNSFNKAQMQAQSAISMLPNSGDEFH
B1: the binding entry in test [7] is recorded as “binds”; in [8], “no binding”; in [9], “binds”; in test [10], “no binding”; in test [11], “no binding”; in [12] it was “no binding”. For the same molecule, the binding result in test [13] and in [14] was “binds” in each case.

B2: NOT2 (Drosophila CCR4-NOT complex subunit) (protein, UniProt Q94547 1-585)
chain: MANLNFQQPPRSIANAALAGRTTGGFGGSSLAGHVTPTSGMFQTDFANSYPGTANYGQAPQQQQQQQQQPQLSPNRNAQLSVGGPAISSGNRNANLFGQRQFVERRAMQGLGSGPMSNMGNFMQTGRGGYGTGGGGGGPLNNFHVFGGGGGSDTSTPALLDPTEFPSLTNARGQNDQTLPQSNPLQPPGSKPYGNFFTSFGMVKQPTSEQSEFTMSNEDFPALPGTQNSDGTTNAVGSVAGTGGSGGASTENHLDGTEKPMNSIVVSGSASGSSGSNVGVVGGNGLGAVGSGIGGLAVGGGGGAGSSGGGGVGGNAASGVVGGSHVGLVGSNSGIGGVNSVPNSNAMMGVGGGLGSGSGSSGSGAGGEHLNDNSSNDKLVKSGVQTSPDGKVTNIPATMVNNQFGMVGLLTFIRAAETDPNLVTLSLGTDLTGLGLNLNSQESLHTTFAGPFVAQPCRAQDVEFNVPPEYLINFAIRDKLTAPVLKKLQEDLLFFLFYTNIGDMMQLMAAAELHSREWRYHVEEKIWITRIPGIDQYEKNGTKERGTFYYFDAQSWKRLSKVFQIDPEKLDKCPNISAFMNGQSV
For B2, the binding entry in test [15] is “no binding”; in [16], “binds”; in test [17], “binds”.
